Laboratory results: ChEMBL document CHEMBL1961873, “Compounds: GSK PKIS; Assays: Nanosyn kinase panel” (2012)
For some assays here: This list holds what a sample rich in strong results left over. This is a selection; strong and weak results do not stand in their true shares.

Columns and labels:
[1] = target: T1, Tyrosine-protein kinase receptor TYRO3 (Homo sapiens) (UniProt Q06418); settings: at 1 µM
T1 sequence (whole entry): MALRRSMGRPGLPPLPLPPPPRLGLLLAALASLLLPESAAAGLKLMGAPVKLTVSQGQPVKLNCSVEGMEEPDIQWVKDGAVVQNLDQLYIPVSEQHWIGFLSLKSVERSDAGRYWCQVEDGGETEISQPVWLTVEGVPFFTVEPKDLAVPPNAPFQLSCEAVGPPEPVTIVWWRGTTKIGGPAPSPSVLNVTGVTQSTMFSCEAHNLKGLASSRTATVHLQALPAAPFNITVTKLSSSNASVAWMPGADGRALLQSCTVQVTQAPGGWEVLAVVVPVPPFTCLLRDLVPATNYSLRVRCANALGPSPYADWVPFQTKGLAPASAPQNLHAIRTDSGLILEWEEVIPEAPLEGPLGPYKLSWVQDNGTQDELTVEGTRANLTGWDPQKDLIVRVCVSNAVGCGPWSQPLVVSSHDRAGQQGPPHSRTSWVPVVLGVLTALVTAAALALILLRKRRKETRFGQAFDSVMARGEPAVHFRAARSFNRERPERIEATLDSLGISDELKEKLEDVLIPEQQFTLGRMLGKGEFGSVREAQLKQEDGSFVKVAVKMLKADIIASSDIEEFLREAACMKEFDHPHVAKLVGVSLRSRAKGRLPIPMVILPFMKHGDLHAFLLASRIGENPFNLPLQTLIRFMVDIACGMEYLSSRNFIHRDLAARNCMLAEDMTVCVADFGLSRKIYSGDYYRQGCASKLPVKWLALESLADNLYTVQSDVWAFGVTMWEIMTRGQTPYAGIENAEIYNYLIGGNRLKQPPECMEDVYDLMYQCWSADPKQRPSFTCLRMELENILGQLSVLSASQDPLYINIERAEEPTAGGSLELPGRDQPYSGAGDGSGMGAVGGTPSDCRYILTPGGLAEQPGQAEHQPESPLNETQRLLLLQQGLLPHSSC

[2] = target: Tyrosine-protein kinase Yes (Homo sapiens) (UniProt P07947); settings: at 0.1 µM
[3] = target: Tyrosine-protein kinase Yes (Homo sapiens) (UniProt P07947); settings: at 1 µM
[4] = target: T2, Tyrosine-protein kinase ZAP-70 (Homo sapiens) (UniProt P43403); settings: at 0.1 µM
T2 sequence (whole entry): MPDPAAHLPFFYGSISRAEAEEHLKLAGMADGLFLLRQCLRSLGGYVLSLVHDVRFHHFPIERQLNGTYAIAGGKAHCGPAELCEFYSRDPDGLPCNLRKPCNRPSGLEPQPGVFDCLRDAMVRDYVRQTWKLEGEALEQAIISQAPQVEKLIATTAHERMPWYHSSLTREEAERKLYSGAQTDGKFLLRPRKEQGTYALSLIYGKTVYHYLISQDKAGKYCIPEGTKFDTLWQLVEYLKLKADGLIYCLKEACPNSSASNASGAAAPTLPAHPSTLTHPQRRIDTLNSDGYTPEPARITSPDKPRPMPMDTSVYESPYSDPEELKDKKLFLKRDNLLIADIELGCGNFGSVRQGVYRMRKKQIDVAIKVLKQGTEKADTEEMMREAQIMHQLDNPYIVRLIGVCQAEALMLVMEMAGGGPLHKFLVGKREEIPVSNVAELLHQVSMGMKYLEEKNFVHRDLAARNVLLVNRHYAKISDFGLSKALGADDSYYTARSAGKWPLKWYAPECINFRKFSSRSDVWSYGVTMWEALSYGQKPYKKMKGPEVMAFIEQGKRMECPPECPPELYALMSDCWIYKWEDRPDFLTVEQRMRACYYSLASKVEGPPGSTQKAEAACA

[5] = target: T2, Tyrosine-protein kinase ZAP-70 (Homo sapiens); settings: at 1 µM
[6] = target: Serine/threonine-protein kinase B-raf (Homo sapiens) (UniProt P15056); settings: at 0.1 µM
[7] = target: Serine/threonine-protein kinase B-raf (Homo sapiens) (UniProt P15056); settings: at 1 µM
[8] = test system: Serine/threonine-protein kinase B-raf (Homo sapiens), P15056 [V600E]; settings: at 0.1 µM
[9] = test system: Serine/threonine-protein kinase B-raf (Homo sapiens), P15056 [V600E]; settings: at 1 µM
[10] = target: RAF proto-oncogene serine/threonine-protein kinase (Homo sapiens) (UniProt P04049); settings: at 0.1 µM;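 further: values are mean CRAF kinase inhibition from profiling of the GSK Published Kinase Inhibitor Set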
UniProt P04049, sequence (P04049 whole entry): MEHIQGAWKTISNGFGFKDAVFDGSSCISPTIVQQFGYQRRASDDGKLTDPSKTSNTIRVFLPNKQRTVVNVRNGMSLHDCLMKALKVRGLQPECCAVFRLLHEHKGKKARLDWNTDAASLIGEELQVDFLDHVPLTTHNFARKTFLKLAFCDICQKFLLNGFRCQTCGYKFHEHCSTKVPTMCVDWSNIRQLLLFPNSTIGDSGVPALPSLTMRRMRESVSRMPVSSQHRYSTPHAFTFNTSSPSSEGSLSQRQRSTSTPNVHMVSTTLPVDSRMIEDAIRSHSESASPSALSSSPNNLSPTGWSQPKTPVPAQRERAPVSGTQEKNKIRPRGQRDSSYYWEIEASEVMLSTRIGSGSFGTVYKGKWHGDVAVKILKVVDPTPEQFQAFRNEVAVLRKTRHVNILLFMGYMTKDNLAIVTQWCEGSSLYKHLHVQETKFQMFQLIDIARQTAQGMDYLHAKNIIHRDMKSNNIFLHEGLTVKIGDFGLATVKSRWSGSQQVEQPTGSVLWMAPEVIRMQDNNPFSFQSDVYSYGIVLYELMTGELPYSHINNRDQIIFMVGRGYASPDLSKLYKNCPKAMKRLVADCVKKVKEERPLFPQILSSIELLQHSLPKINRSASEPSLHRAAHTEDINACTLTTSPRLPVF

UniProt P07947, sequence (P07947 whole entry, looked up): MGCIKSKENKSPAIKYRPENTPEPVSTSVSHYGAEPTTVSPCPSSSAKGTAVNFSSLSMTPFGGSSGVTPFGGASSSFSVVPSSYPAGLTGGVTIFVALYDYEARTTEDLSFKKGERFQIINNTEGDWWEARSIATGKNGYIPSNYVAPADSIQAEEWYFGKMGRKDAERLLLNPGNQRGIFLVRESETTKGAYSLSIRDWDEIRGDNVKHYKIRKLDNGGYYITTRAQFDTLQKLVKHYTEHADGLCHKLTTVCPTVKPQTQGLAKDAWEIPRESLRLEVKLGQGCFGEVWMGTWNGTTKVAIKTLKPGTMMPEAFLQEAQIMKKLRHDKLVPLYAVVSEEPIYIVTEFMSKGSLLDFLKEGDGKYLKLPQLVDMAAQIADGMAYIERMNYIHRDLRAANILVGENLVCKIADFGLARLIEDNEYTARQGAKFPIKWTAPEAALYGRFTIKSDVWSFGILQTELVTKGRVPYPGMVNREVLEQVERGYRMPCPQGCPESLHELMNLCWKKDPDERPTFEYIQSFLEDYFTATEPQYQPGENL
UniProt P15056, sequence (P15056 whole entry): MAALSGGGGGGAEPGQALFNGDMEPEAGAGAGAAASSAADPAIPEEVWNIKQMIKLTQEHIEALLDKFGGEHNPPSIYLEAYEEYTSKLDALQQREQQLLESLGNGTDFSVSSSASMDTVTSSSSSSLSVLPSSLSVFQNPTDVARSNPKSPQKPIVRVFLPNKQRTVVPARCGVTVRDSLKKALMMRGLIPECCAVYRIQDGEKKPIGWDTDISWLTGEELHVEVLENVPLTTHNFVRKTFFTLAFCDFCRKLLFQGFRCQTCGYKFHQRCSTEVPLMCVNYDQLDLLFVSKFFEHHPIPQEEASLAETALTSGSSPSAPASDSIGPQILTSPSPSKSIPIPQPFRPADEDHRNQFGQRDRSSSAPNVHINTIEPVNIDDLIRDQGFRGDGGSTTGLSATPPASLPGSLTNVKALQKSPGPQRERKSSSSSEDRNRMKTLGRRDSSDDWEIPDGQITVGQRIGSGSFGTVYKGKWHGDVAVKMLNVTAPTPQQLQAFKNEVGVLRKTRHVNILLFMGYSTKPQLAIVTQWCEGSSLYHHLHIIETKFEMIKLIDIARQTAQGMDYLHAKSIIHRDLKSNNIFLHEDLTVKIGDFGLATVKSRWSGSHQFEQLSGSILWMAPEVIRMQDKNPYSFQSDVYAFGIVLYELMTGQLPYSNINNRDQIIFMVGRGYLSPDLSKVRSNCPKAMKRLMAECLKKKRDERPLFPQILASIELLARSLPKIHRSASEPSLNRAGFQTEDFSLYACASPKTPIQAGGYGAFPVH

Structure (SMILES) | inhibition [1] [%] | inhibition [2] [%] | inhibition [3] [%] | inhibition [4] [%] | inhibition [5] [%] | inhibition [6] [%] | inhibition [7] [%] | inhibition [8] [%] | inhibition [9] [%] | inhibition [10] [%]
Fc1ccc(-c2ncn(C3CCNCC3)c2-c2ccnc(Oc3ccc(Cl)cc3)n2)cc1 | 1.63 | -0.03 | 0.1 | -0.15 | -2.6 | 1.9 | 2.82 | 1.07 | 1.93 | -1.81
CC(C)(C)c1ccc(Oc2nccc(-c3c(-c4ccc(F)cc4)ncn3C3CCNCC3)n2)cc1 | 3.16 | 3.05 | 5.48 | -3.59 |  | 6.06 | 14.9 | 4.63 | 12.3 | 2.31
O=C1NC(=O)C(c2ccccc2)=C1Nc1ccccc1 | 4.48 | 2.03 | 2.59 | 3.89 | 1.91 | 8.15 | 6.69 | 7.6 | 5.97 | 2.66
COc1ccccc1Oc1nccc(-c2c(-c3ccc(F)cc3)ncn2C2CCNCC2)n1 | 3.44 | 1.67 | 6.4 | -1.27 | -0.28 | 6.64 | 8.02 | 4.66 | 4.03 | -2.51
Cc1cccc(Oc2nccc(-c3c(-c4ccc(F)cc4)ncn3C3CCNCC3)n2)c1C | 2.21 | 2.26 | 4.79 | -3.83 | -2.95 | 6.21 | 6.08 | 4.06 | 4.68 | -1.24
COc1ccccc1C1=C(Nc2ccccc2)C(=O)NC1=O | 3.3 | 4.77 | 20.3 | 0.26 | 1.94 | 4.84 | 4.42 | 4.33 | 5.18 | 2.57
CS(=O)(=O)c1ccc(Oc2nccc(-c3c(-c4ccc(F)cc4)ncn3C3CCNCC3)n2)cc1 | 3.49 | 1.1 | 4.12 | 0.61 | 1.29 | 6.14 | 5.95 | 4.98 | 3.13 | 1.89
NC(=O)CCc1ccccc1Oc1nccc(-c2c(-c3ccc(F)cc3)ncn2C2CCNCC2)n1 | -1.13 | -0.77 | -2.72 | -2.46 | 0.47 | -2.7 | -2.67 | 5.18 | -0.7 | -3.04
Fc1ccc(-c2ncn(C3CCNCC3)c2-c2ccnc(Oc3cccc(C(F)(F)F)c3)n2)cc1 | 0.95 | 3.59 | 3.28 | 2.51 | 2.23 | 8.2 | 9.1 | 6.64 | 6.1 | 2.4
O=C1NC(=O)C(c2ccccc2Cl)=C1Nc1cc(Cl)c(O)c(Cl)c1 | 4.71 | -0.8 | 1.62 | 2.32 | 0.91 | 2.93 | 5.8 | 3.25 | 5.02 | 1.49
Fc1ccc(-c2ncn(C3CCNCC3)c2-c2ccnc(Oc3cccc(F)c3)n2)cc1 | 3.14 | 3.48 | 6.72 | 1.01 | 1.77 |  | 9.91 | 3.08 | 5.43 | 3.39
O=C1NC(=O)C(c2cccc([N+](=O)[O-])c2)=C1Nc1cc(Cl)c(O)c(Cl)c1 | 1.3 | 0.98 | 3.65 | -2.36 | 0.91 | 2.35 | 3.75 | 3.01 | 3.31 | 16.3
Fc1ccc(Oc2nccc(-c3c(-c4ccc(F)cc4)ncn3C3CCNCC3)n2)cc1 | -1 | -0.25 | -1.14 | -4.64 | -2.87 | 5.3 | 9.11 | 2.96 | 4.26 | 1.46
O=C(O)c1ccc(Oc2nccc(-c3c(-c4ccc(F)cc4)ncn3C3CCNCC3)n2)cc1 | 2.64 | 0.62 | -0.06 | 1.32 | 2.99 |  | 10.5 | 4.46 | 5.65 | 1.06
